The whole screen tested about 220,000 compounds, of which about 5,700 (2.6%) were called active. Inconclusive results, whose numbers are uncertain, are shown with a selection of clear calls. The call rests on the fitted dose curve; in most records, active means well fitted inhibition curve with a large enough effect; inconclusive means small, poorly fitted or top-dose-only effect; inactive means no such curve, though single readings can be large or run the other way. Where the call is inconclusive, the potency comes from a doubtful curve fit.
Target: Lysine-specific demethylase 5B (Homo sapiens) (UniProt Q9UGL1)
Sequence of UniProt Q9UGL1 (Q9UGL1 whole entry, looked up): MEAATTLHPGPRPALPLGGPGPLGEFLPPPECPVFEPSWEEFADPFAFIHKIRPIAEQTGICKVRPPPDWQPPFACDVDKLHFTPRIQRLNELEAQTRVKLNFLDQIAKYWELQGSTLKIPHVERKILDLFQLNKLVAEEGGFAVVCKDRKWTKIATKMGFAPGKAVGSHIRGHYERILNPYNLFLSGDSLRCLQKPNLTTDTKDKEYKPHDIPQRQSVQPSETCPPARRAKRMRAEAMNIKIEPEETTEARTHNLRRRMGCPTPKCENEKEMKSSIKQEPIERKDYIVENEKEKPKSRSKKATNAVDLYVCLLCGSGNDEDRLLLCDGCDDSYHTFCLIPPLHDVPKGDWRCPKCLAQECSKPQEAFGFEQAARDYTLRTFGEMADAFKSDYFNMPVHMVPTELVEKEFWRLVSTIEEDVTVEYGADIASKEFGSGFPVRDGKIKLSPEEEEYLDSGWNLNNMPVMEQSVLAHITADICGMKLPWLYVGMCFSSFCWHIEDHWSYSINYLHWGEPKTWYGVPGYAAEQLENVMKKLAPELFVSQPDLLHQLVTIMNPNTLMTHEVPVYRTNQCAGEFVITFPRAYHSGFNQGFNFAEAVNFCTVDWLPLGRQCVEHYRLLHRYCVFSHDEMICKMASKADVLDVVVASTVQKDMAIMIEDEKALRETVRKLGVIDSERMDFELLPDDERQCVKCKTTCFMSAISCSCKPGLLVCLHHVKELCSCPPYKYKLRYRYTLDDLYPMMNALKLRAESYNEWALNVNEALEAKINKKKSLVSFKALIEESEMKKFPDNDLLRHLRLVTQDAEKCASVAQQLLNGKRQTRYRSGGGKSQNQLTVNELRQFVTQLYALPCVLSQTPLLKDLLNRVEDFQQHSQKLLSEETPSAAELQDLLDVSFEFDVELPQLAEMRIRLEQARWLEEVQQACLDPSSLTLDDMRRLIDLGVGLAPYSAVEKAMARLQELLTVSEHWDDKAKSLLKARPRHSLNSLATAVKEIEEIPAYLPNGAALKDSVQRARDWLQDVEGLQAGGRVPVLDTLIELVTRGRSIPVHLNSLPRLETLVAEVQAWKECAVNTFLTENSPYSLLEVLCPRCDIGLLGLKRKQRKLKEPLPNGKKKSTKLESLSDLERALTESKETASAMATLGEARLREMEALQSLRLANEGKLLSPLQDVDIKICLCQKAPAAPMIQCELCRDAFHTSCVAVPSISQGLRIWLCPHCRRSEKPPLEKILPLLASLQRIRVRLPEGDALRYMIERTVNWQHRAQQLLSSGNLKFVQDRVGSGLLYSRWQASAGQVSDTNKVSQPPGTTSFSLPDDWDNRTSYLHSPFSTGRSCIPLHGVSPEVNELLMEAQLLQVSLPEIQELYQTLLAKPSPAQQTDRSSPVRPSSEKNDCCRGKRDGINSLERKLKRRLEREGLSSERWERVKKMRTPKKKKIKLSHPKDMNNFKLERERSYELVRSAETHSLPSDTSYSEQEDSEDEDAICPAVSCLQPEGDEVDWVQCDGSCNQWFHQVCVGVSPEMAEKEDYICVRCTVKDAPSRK
Test: Primary screen for KDM5B Histone Demethylases FDH-coupled qHTS; further: nearly all actives have a fitted effect of over 70% in size; on activity change, negative = inhibition: 0% is about no effect
Settings: FDH-coupled NADH fluorescence (FDH is formaldehyde dehydrogenase); activity change, negative = inhibition: at 57.7 µM (top of the series) unless noted
Outline: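 qHTS format, multiple compound concentrations. Buffer 50 mM HEPES pH 7.5/0.01% Tween-20; 200 nM KDM5BΔAP final; 10 min compound preincubation; substrate-mix levels 12.5 µM peptide, 25 µM α-KG, 0.25 mM NAD⁺; 30 min RT; ΔRFU.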
Potency means the concentration at half of the fitted maximal effect; tags describe the fitted curve by direction and shape.

SMILES | Potency | activity change, negative = inhibition
Cn1cccc1CN1CCC2(C1)C(=NC1CCCCC1)NC(=O)N2c1cc(F)cc(F)c1 (stereo not drawn) | inconclusive: 5.62 µM [inhibitor, full curve, poor fit] | 
CC1(C(=O)NCCN2CCOCC2)CCCc2cnc(NCc3ccccc3)nc21 (stereo not drawn) | active: 35.5 µM | 
CC(C)c1ccc(-c2csc(Nc3ccc(S(N)(=O)=O)cc3)n2)cc1 | inconclusive: 25.1 µM [inhibitor, single point] | 
Cc1ccc(-c2cnc(NCc3c(F)cccc3Cl)n2C)cc1 | inconclusive: 15.8 µM [inhibitor, partial curve, poor fit] | 
C#CCNC(=O)c1nc(-c2ccc(Cl)cc2)c2ccccn12 | active: 31.6 µM | 
CN(C)C[C@@H]1CN(c2ncccn2)C[C@H]1NC(=O)NCc1ccco1 | inconclusive: 28.2 µM [inhibitor, partial curve, poor fit] | 
CCOc1ccc(NC(=O)Cn2c(=O)c(CNc3ccc(OC)cc3)cc3ccc(OC)cc32)cc1 | inconclusive: 15.8 µM [inhibitor, partial curve, poor fit] | 
CCOC(=O)c1cc(S(=O)(=O)N2CCN(c3cc(Cl)ccc3C)CC2)[nH]n1 | inconclusive: 7.94 µM [inhibitor, partial curve, poor fit] | 
CCOC(=O)c1ccc(NC(=O)c2nsc3ccccc23)cc1 | inconclusive: 39.8 µM [inhibitor, single point] | 
COc1ccc(OC)c(NC(=O)C2(CCO)CCN(c3ncccn3)C2)c1 (stereo not drawn) | inconclusive: 22.4 µM [inhibitor, partial curve] | 
CN1CCc2nc3sc(C(=O)Nc4c(F)cccc4F)c(N)c3cc2C1 | inconclusive: 14.1 µM [inhibitor, partial curve, poor fit] | 
COc1cccc(C(N)=O)c1OCc1ccc(SC)cc1 |  | inactive: 17.4%
Cc1c(N(Cc2ccccc2F)S(C)(=O)=O)c(=O)n(-c2ccccc2)n1C |  | inactive: -4.9%
Cc1cn2cc(C(=O)NCc3cn4c(n3)SCC4)ccc2n1 | inconclusive: 28.2 µM [inhibitor, partial curve, poor fit] | 
Cc1ccc(C)c(NC(=O)CN2CCN(S(=O)(=O)c3cccs3)CC2)c1 |  | inactive: 10.9%
Cc1oc(-c2ccccc2Cl)nc1CS(=O)(=O)CC(=O)NC(C)CCc1ccccc1 (stereo not drawn) | inconclusive: 14.1 µM [inhibitor, partial curve, poor fit] | 
CCN1CCN(c2nc3c(s2)CN(Cc2ccccn2)CC3)CC1 | inconclusive: 11.2 µM [inhibitor, partial curve] | 
COc1cc(CN2CC[C@H](CNC(=O)C3CC3)[C@H](N(C)C)C2)ccc1F | inconclusive: 31.6 µM [inhibitor, partial curve, poor fit] | 

— PubChem BioAssay AID1347165 (National Center for Advancing Translational Sciences (NCATS), 2019)
